First the molecules themselves.
B1: fldA L51Q (protein)
chain: MAITGIFFGSDTGNTENIAKMIQKQLGKDVADVHDIAKSSKEDLEAYDILQLGIPTWYYGEAQCDWDDFFPTLEEIDFNGKLVALFGCGDQEDYAEYFCDALGTIRDIIEPRGATIVGHWPTAGYHFEASKGLADDDHFVGLAIDEDRQPELTAERVEKWVKQISEELHLDEILNA
B2: fldA L52Q (protein)
chain: MAITGIFFGSDTGNTENIAKMIQKQLGKDVADVHDIAKSSKEDLEAYDILLQGIPTWYYGEAQCDWDDFFPTLEEIDFNGKLVALFGCGDQEDYAEYFCDALGTIRDIIEPRGATIVGHWPTAGYHFEASKGLADDDHFVGLAIDEDRQPELTAERVEKWVKQISEELHLDEILNA
B3: ffh L188Q (protein)
chain: MFDNLTDRLSRTLRNISGRGRLTEDNVKDTLREVRMALLEADVALPVVREFINRVKEKAVGHEVNKSLTPGQEFVKIVRNELVAAMGEENQTLNLAAQPPAVVLMAGLQGAGKTTSVGKLGKFLREKHKKKVLVVSADVYRPAAIKQLETLAEQVGVDFFPSDVGQKPVDIVNAALKEAKLKFYDVLQVDTAGRLHVDEAMMDEIKQVHASINPVETLFVVDAMTGQDAANTAKAFNEALPLTGVVLTKVDGDARGGAALSIRHITGKPIKFLGVGEKTEALEPFHPDRIASRILGMGDVLSLIEDIESKVDRAQAEKLASKLKKGDGFDLNDFLEQLRQMKNMGGMASLMGKLPGMGQIPDNVKSQMDDKVLVRMEAIINSMTMKERAKPEIIKGSRKRRIAAGCGMQVQDVNRLLKQFDDMQRMMKKMKKGGMAKMMRSMKGMMPPGFPGR
B4: ffh V135W (protein)
chain: MFDNLTDRLSRTLRNISGRGRLTEDNVKDTLREVRMALLEADVALPVVREFINRVKEKAVGHEVNKSLTPGQEFVKIVRNELVAAMGEENQTLNLAAQPPAVVLMAGLQGAGKTTSVGKLGKFLREKHKKKVLVWSADVYRPAAIKQLETLAEQVGVDFFPSDVGQKPVDIVNAALKEAKLKFYDVLLVDTAGRLHVDEAMMDEIKQVHASINPVETLFVVDAMTGQDAANTAKAFNEALPLTGVVLTKVDGDARGGAALSIRHITGKPIKFLGVGEKTEALEPFHPDRIASRILGMGDVLSLIEDIESKVDRAQAEKLASKLKKGDGFDLNDFLEQLRQMKNMGGMASLMGKLPGMGQIPDNVKSQMDDKVLVRMEAIINSMTMKERAKPEIIKGSRKRRIAAGCGMQVQDVNRLLKQFDDMQRMMKKMKKGGMAKMMRSMKGMMPPGFPGR
B5: folE V11W (protein)
chain: MPSLSKEAALWHEALVARGLETPLRPPVHEMDNETRKSLIAGHMTEIMQLLNLDLADDSLMETPHRIAKMYVDEIFSGLDYANFPKITLIENKMKVDEMVTVRDITLTSTCEHHFVTIDGKATVAYIPKDSVIGLSKINRIVQFFAQRPQVQERLTQQILIALQTLLGTNNVAVSIDAVHYCVKARGIRDATSATTTTSLGGLFKSSQNTRHEFLRAVRHHN
B6: folE M99W (protein)
chain: MPSLSKEAALVHEALVARGLETPLRPPVHEMDNETRKSLIAGHMTEIMQLLNLDLADDSLMETPHRIAKMYVDEIFSGLDYANFPKITLIENKMKVDEWVTVRDITLTSTCEHHFVTIDGKATVAYIPKDSVIGLSKINRIVQFFAQRPQVQERLTQQILIALQTLLGTNNVAVSIDAVHYCVKARGIRDATSATTTTSLGGLFKSSQNTRHEFLRAVRHHN
B7: frr V69W (protein)
chain: MISDIRKDAEVRMDKCVEAFKTQISKIRTGRASPSLLDGIVVEYYGTPTPLRQLASVTVEDSRTLKINWFDRSMSPAVEKAIMASDLGLNPNSAGSDIRVPLPPLTEERRKDLTKIVRGEAEQARVAVRNVRRDANDKVKALLKDKEISEDDDRRSQDDVQKLTDAAIKKIEAALADKEAELMQF
B8: accA I200W (protein)
chain: MSLNFLDFEQPIAELEAKIDSLTAVSRQDEKLDINIDEEVHRLREKSVELTRKIFADLGAWQIAQLARHPQRPYTLDYVRLAFDEFDELAGDRAYADDKAIVGGIARLDGRPVMIIGHQKGRETKEKIRRNFGMPAPEGYRKALRLMQMAERFKMPIITFIDTPGAYPGVGAEERGQSEAIARNLREMSRLGVPVVCTVWGEGGSGGALAIGVGDKVNMLQYSTYSVISPEGCASILWKSADKAPLAAEAMGIIAPRLKELKLIDSIIPEPLGGAHRNPEAMAASLKAQLLADLADLDVLSTEDLKNRRYQRLMSYGYA
B9: accA V102Q (protein)
chain: MSLNFLDFEQPIAELEAKIDSLTAVSRQDEKLDINIDEEVHRLREKSVELTRKIFADLGAWQIAQLARHPQRPYTLDYVRLAFDEFDELAGDRAYADDKAIQGGIARLDGRPVMIIGHQKGRETKEKIRRNFGMPAPEGYRKALRLMQMAERFKMPIITFIDTPGAYPGVGAEERGQSEAIARNLREMSRLGVPVVCTVIGEGGSGGALAIGVGDKVNMLQYSTYSVISPEGCASILWKSADKAPLAAEAMGIIAPRLKELKLIDSIIPEPLGGAHRNPEAMAASLKAQLLADLADLDVLSTEDLKNRRYQRLMSYGYA

± gives the standard deviation of the averaged measurements. Laboratory Escherichia coli strains with one amino-acid change in an essential protein, pooled on minimal glucose agar with carbenicillin or gentamicin at twice the control MIC (plus kanamycin and chloramphenicol for the plasmids), 48 h. Fold change of barcode share against drug-free plates; higher = less susceptible. Active = above 20 in both replicates (the paper's putatively resistant). '<' = one read or none on drug, '>' = one read or none on a drug-free plate. Shares are relative, so most strains fall below 1 when a few take over. Listed are strains with at least 15 reads on both drug-free plates, and hits; most hits rest on fewer reference reads. Replicate rank correlation about 0.5. Edits are read from barcodes. Where only a bound is given, the exact number is not on record here.

The data set concerns the target Escherichia coli (laboratory strain). In words: barcode share on antibiotic plates over drug-free plates; higher = less susceptible. The following applies: antibiotic: gentamicin; 2× MIC (MIC 0.45 µg/mL). How it is done:
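A pool of E. coli strains, each edited to carry one amino-acid change in an essential protein, was grown for 48 h on minimal glucose agar with or without antibiotic; strain barcodes were sequenced; mean of two replicates.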
With B1, the “fold change of barcode share” value was less than 0.0156. Regarding B2, the “fold change of barcode share” value was less than 0.0208. For B3 the value was less than 0.0206.

As to B4, the “fold change of barcode share” value is less than 0.0149. With B5, the “fold change of barcode share” value is less than 0.0184. In the case of B6 it was less than 0.0129.

As for B7, the “fold change of barcode share” value was determined as 0.0342 ± 0.017. For B8 the value was less than 0.0226. For B9 the value was less than 0.0226.

(Values after the supplement of paper PMC11876631.)
